Assay results reported in the supplement of paper PMC11417369.
± gives the standard deviation of the averaged measurements. The list shows a part of the results.

The sequences below were run on PfAP2-LT AP2 domain (GST-tagged) (assay: gcPBM binding intensity (ln(normalized median fluorescence intensity)); higher = stronger DNA binding).
Outline: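 In this array assay, P. falciparum DNA-binding domains with a GST tag, expressed in E. coli, were applied for 1 h to primer-extended double-stranded 36-bp intergenic genomic probes and negative controls on an Agilent 4 × 180k array. Bound protein was visualised with Alexa488 anti-GST antibody at 488 nm. Binding intensity is the highest Masliner-normalised natural-log median intensity across replicate spots of either probe orientation.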

| Sequence | gcPBM binding intensity (ln) |
| --- | --- |
| TATACTCATATATAAACACACAAAAAAAAAAAAAAA [CACACA_site5165] | 8.72 ± 0.45 |
| ATATATATATATATGTGTACATATATATATCATATG [XGTACX_site3126] | 9.57 ± 0.071 |
| TTTCCCTACCAAAAGTGTACTTATACATATTTTTAT [XGTACX_site5495] | 8.84 ± 0.41 |
| ATACGAAAATATTTTGCACACTATAATTATTCATAT [CACACA_site1765] | 9.08 ± 0.38 |
| AAAAAAAAAAAAAAAGTGCATTAATAAATTTTAATA | 8.32 ± 0.53 |
| ACATCTATGTATAATACACACACTAATATATAATTG [CACACA_site5134] | 9.4 ± 0.28 |
| ACATATTATTCTTCTTGTACACATAAATTTTATAAA [XGTACX_site299] | 8.7 ± 0.42 |
| ATGACGTAGTGGTGTACACACATGGTACCTTTATTC [CACACA_site1547] | 9.37 ± 0.42 |
| AAAAAAATATTCAAAGCATGCCTATTTACACATATT [TGCATGCA_site806] | 8.91 ± 0.51 |
| TCTTATAATTTACCTACACACAGGAAATATATAAAT [CACACA_site294] | 8.77 ± 0.38 |
| ACACAATGTAGTGTATAAATACAATAAAAGGTTGTA [TGCATGCA_negctrl_site251] | 9.4 ± 0.59 |
| TCAGAAATATTACAAAGTACATGCAACGAAAATTTC [XGTACX_site5061] | 8.87 ± 0.35 |
| TGATATTTAAATTTTGCACACGCATATGAAATTAGG [CACACA_site1034] | 8.96 ± 0.29 |
| ATAAATATTATTTTACGTACATATTTATGAAGTATT [XGTACX_site8746] | 8.67 ± 0.35 |
| AAATTATAAAAATGTAGTACAGACAATATATTCGTA [XGTACX_site8307] | 8.93 ± 0.45 |
| CAGGAGAGAAAATATCGTACAAGCAAAAATAAGTGG [XGTACX_site8557] | 9.06 ± 0.48 |
| GTTTATATGTTCATAGTGCATATATGTTGATTTATT | 9.03 ± 0.39 |
| TTTTTTTTTTTTTACTGTACTTAATAAGATTGAATA [XGTACX_site2384] | 8.29 ± 0.42 |
| TATAAAAAAAAAAAAAAAAAAAAAAAAAAAAAAAAA [TGCATGCA_negctrl_site42] | 7.89 ± 0.22 |
| TATTATTTTAAGATTGTTTATGTAAAGAATTATGAA [CACACA_negctrl_site445] | 8.09 ± 0.35 |
| AAATTATATACCACAGTGCAAAAGGCAGGTATACGT | 9.24 ± 0.41 |
| TGTGTATATATGCTGGTGCAACTTTAAAAAATAATC | 8.71 ± 0.42 |
| GTAGAGAAAAAAATGTGGACACAAAAAATAAAAAGG [XGTACX_site4058] | 8.96 ± 0.45 |

| Sequence | gcPBM binding intensity (ln) |
| --- | --- |
| TATATTGCAAAAAGTACACACATAAATAAATACATA [CACACA_site6589] | 9.13 ± 0.45 |
| TTTTTTTTTTTTTGCACACACATATATAAATATATA [CACACA_site3949] | 9.15 ± 0.39 |
| AGTAGTCTGGAGAAGAGTACATAGTATCTGGTAGCT [XGTACX_site2017] | 8.91 ± 0.46 |
| CTACACACTTATAAATGTACAGGATTTAAGTATATG [XGTACX_site8245] | 8.86 ± 0.38 |
| TATTTATTTATTTTGTTATAATTAAAATGGATACAT [XGTACX_negctrl_site387] | 8.46 ± 0.45 |
| TAACTTAATAAAAAAAGTACATATATTTTTAATAAA [XGTACX_site2707] | 8.23 ± 0.52 |
| AGTGAATATTACGAAACACACAAAAAAATACATTTC [CACACA_site511] | 9.09 ± 0.38 |
| AAATATAATAATACATTGCACATATATTATATATAT [TGCATGCA_negctrl_site611] | 8.79 ± 0.39 |
| TGTAATAATCTTCATTTCTTTTTTTTTTTTTTTTGT [CACACA_negctrl_site1388] | 8.37 ± 0.66 |
| TTTTGATATATGAATATTAAGTTATATAATATTTTA [TGCATGCA_negctrl_site39] | 8.28 ± 0.43 |
| TATATATATAAATACACACACACAAAAAAAAAAAAA [CACACA_site4930] | 9.61 ± 0.31 |
| AATTTAATTGTGAGAGTGCGTACTGCTCCACATATA | 8.71 ± 0.39 |
| ATGTGTTTGTATATATGTACATATTTATGTTATTTC [XGTACX_site6960] | 9.29 ± 0.47 |
| AAAAAAAAAAAAAAAAAAAAAAAAAAATGAGATACA [GTGCAC_negctrl_site160] | 8.76 ± 0.16 |
| ATCTTATCATTTTAAAGTACATAATTAATTCTTTTT [XGTACX_site3999] | 8.66 ± 0.49 |
| TATAACAAATAAAAATGTACATATATATAATATATA [XGTACX_site6173] | 8.79 ± 0.43 |
| ATAATACCAGAATAGATTTAAATGAATATTTTATTT [CACACA_negctrl_site476] | 8.52 ± 0.58 |
| ATGATATATTTAATAGTGCACTAATTAAAATTATTA [GTGCAC_site9418] | 8.6 ± 0.41 |
| AAAAGGATATATGAAAGTACAAAGGTATAGTATATT [XGTACX_site7385] | 9.14 ± 0.54 |
| TACAGTAAAAATAGTTGTACTTGTTTATTTCTTCTT [XGTACX_site7674] | 8.62 ± 0.38 |
| TAAAATATAATGATCACACATATAAACAAGTGGGTA [CACACA_site4651] | 8.95 ± 0.44 |
| TATTCTAGAATTTTAACACACAAGAATATAAACTTT [CACACA_site6757] | 8.65 ± 0.36 |
| ATTTTTAAATACAGTACACACATGGGTTTAAATTAT [CACACA_site2884] | 8.86 ± 0.39 |

| Sequence | gcPBM binding intensity (ln) |
| --- | --- |
| TCCTATAAACAAATTTGTACATATAAGAATATATTC [XGTACX_site3892] | 8.57 ± 0.39 |
| GGTTATATGATAGGATGTACAATTAAAAGTAAATAT [XGTACX_site5083] | 8.87 ± 0.48 |
| GATTATTTTAGAAGTACACACATTTATATATAATAA [CACACA_site5429] | 8.69 ± 0.45 |
| TATTTATATTTATATACACACATATATACCTATATA [CACACA_site7820] | 8.97 ± 0.47 |
| TATAAACGCACCTACACACACAACGTAAATGCATTG [CACACA_site7120] | 9.55 ± 0.26 |
| TATTCAAAACGGTATTGTACAAATTTTATAATTTAA [XGTACX_site6928] | 8.49 ± 0.36 |
| TGAACATTATAGAAAAGTACTTAGTTTTTAAAAAGA [XGTACX_site6864] | 8.56 ± 0.47 |
| TATGGATAAATAAATACACACATAAATTTAAATATA [CACACA_site1282] | 8.96 ± 0.49 |
| GCCGCACCCAGATACGCACACAAGAAAAAAATATTC [CACACA_site3456] | 9.02 ± 0.49 |
| CACACGCACAGACACACACACACACGGATATAAATA [CACACA_site6301] | 10.2 ± 0.38 |
| TTTTTTTTTTTTTTTTGTACATATAAAAATACGTAA [XGTACX_site6003] | 8.32 ± 0.26 |
| TCACTACATTTTGGACGTACACAACTTGATATATTG [XGTACX_site4775] | 9.09 ± 0.4 |
| AAATCTTAACTCTATGCACACATAAAAGTATATAAA [CACACA_site8709] | 8.79 ± 0.38 |
| ATGATATACTTGAGTGTGCACAAACTATTACTTACA | 9.27 ± 0.54 |
| ATTTTGATGATGTATGCACACATTGAAAATGAGAAA [CACACA_site2916] | 8.97 ± 0.57 |
| ACAACATATGTTATCACACACATATAAATATAAATA [CACACA_site7038] | 9.26 ± 0.42 |
| ATATATATATATATATGTACATATTTGATTTTTCTT [XGTACX_site8171] | 9.69 ± 0.13 |
| TATATATCGCCCTTCACACACACACGGATATAAATA [CACACA_site7221] | 9.64 ± 0.2 |
| ATAATAAATATATAATGTACATATTATGTTCTTTAT [XGTACX_site8655] | 8.76 ± 0.37 |
| CGCTCTTATAAATGTTGTACATAAAACTGTTCATTA [XGTACX_site3409] | 8.62 ± 0.49 |
| ATCGGTAATATTAACACACACATTTATATATATTTA [CACACA_site1084] | 9.19 ± 0.37 |
| TTTTGTAGATATTGAAGTACAAAAAAAATGTAAAAG [XGTACX_site5905] | 8.72 ± 0.49 |
| TTTTTTAATATATTATTATAAATATTTTTTATGTGT [GTGCAC_negctrl_site712] | 8.6 ± 0.58 |

| Sequence | gcPBM binding intensity (ln) |
| --- | --- |
| CATAATGTAAATAAGTGTACACATATATAATACATA [XGTACX_site3108] | 9.15 ± 0.35 |
| ATGCGTTAATCTATATATATTATGTATAGATTTTCA [CACACA_negctrl_site1650] | 8.82 ± 0.39 |
| AACATATTTATGATGTGTACCTACATAATAGAATTT [XGTACX_site141] | 8.81 ± 0.41 |
| CTCTACGAATTCATAGTGCAAAGAGCTAATTTTTTC [GTGCAC_site9710] | 8.53 ± 0.38 |
| TCTTTTATGATATTTACACACAAACGTGAGATAGCT [CACACA_site2312] | 9.06 ± 0.3 |
| AACATTATGTTTATTTGTACATATAAATATATGTAA [XGTACX_site7389] | 8.49 ± 0.4 |
| GATCATTCAGTTTTATCACACACAATCAAACATATA [CACACA_site8882] | 9.06 ± 0.4 |
| ATATTTTGATAATATTGTACAAAAACATTAAAATGT [XGTACX_site8361] | 8.6 ± 0.4 |
| TATTTAATTACATGAACACACATTATATATTTTTAA [CACACA_site5615] | 8.55 ± 0.45 |
| TATATATATATGTGCACACCAATTGTATGTAATATA [CACACA_site3889] | 9.32 ± 0.2 |
| TTTATATTATTAGAAACACACATTAGATTAAAATTA [CACACA_site3286] | 8.3 ± 0.42 |
| TACATAATAACATGTACACACATTCTTCTATAAATG [CACACA_site4061] | 8.95 ± 0.38 |
| CATTAAAAAGAAAGTTCACACACATATATATGACGG [CACACA_site8836] | 9.17 ± 0.44 |
| ACATAATAAAAATGACGTACAATTTTTTTTTTTCAT [XGTACX_site8340] | 8.66 ± 0.47 |
| ACTACATAATATTAACGTACATATTATAATACTTGC [XGTACX_site954] | 8.9 ± 0.43 |
| ATATAACACATTAGTTGTACTATTTTTAATTGGTGA [XGTACX_site961] | 8.65 ± 0.44 |
| TAGCCCATATGGAATACACACTGAAAATAAAAAAAG [CACACA_site5799] | 8.96 ± 0.57 |
| TTACAATAAATTATAGTGCAATATTTTATTTAATAT | 8.41 ± 0.44 |
| ATGAATAATTAATGATGTACTTAAAAAAAAAAATAT [XGTACX_site6346] | 8.65 ± 0.49 |
| AAAAAAAAAAAAAAAAAAAAAAAAAAAAAAACATAT [GTGCAC_negctrl_site580] | 9.01 ± 0.28 |
| GTTAATATCTTGAACAGTACTCTAAATATCTACATA [XGTACX_site5358] | 8.57 ± 0.41 |
